Results reported in the supplement of paper PMC11417369.
The list shows a part of the results.

test system: PfSIP2 AP2 domain 1 (GST-tagged); experiment: gcPBM binding intensity (ln(normalized median fluorescence intensity)); higher = stronger DNA binding
Outline: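 Each value is the highest Masliner-normalised natural-log median intensity across replicate spots of either orientation of a probe. The probes were primer-extended double-stranded 36-bp intergenic genomic sequences on an Agilent 4 × 180k array, alongside negative controls, exposed for 1 h to GST-tagged P. falciparum DNA-binding domains expressed in E. coli. Bound protein was picked up with Alexa488 anti-GST antibody and scanned at 488 nm.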

| Sequence | gcPBM binding intensity (ln) |
| --- | --- |
| AAAAAACACTTAAGGTGTACCTTTTAATATAAGTAT [XGTACX_site2397] | 6.8 |
| AACCATAACTCATATGCACACATAAATATTACATAT [CACACA_site9273] | 7.34 |
| TGGAGGATAGTTCACAGTACCCAGTAACTCTACGGA [XGTACX_site4930] | 6.6 |
| AAAGTATAAATAAATACACACATATATATATATATA [CACACA_site2892] | 9.39 |
| TACATTCGGAGTAAAAAAAAATTTATACAATTACTT [XGTACX_negctrl_site29] | 6.62 |
| TGTGTATATAAATAATGTACATATATATTTTTTTAT [XGTACX_site7341] | 7.18 |
| GTAAAAAAAAAAAAAAGTACATTATACATATATTTA [XGTACX_site5447] | 6.85 |
| TTTTATAATGTTGTAGTGCAAAATACGTATATTTAT [GTGCAC_site9826] | 8.05 |
| AATAAATATATGTACACACACAAATATATACATATC [CACACA_site1903] | 7.08 |
| AAAATATATATTAACACACACACAAAAAAAAAAAAA [CACACA_site1325] | 7.13 |
| AGATATAAGAAAAGCACACACACACCCAAAAAAAAA [CACACA_site2826] | 7.04 |
| GAAAATTATATGTGTTGTACACTTGCAACAACTATT [XGTACX_site3637] | 7.04 |
| ATATAAATATTTATTAGTACACATTAGTGTAGTTTT [XGTACX_site4493] | 6.96 |
| CTATATTATTTTTCTTGTACGTAGGAAATATAGCTA [XGTACX_site6176] | 7.12 |
| AATATATGGTTTCATTATATTAAATTCAATTTAATG [CACACA_negctrl_site675] | 6.75 |
| GGTGGCTAAATTACAACACACGACGGAATATTATAT [CACACA_site4114] | 6.91 |
| ACCGTGGGAAGACACACACACACACCCACATATATA [CACACA_site333] | 7.02 |
| AGTATATAATAATTTACACACAAAAAAATATCAGGA [CACACA_site3517] | 7.22 |
| TGATTTATCTATATTTTATAAGTTATTTATTTTTTT [CACACA_negctrl_site1603] | 6.68 |
| TTTTATTCATTGAGCACACAAAATAAATTATCAAAA [CACACA_site3279] | 7.03 |
| TTTGTAACTTCTTTCACACATATATATATATATATA [CACACA_site5603] | 9.76 |
| GTGTGCAAAAATTGTTGTACATTATATATAAAAAAA [XGTACX_site3246] | 7.79 |

| Sequence | gcPBM binding intensity (ln) |
| --- | --- |
| CTATTATCGGTTCCTACACACAAATATAGATGTCTA [CACACA_site7651] | 7.28 |
| TATATAATACAAAAGGGTACATTAACATATTATATA [XGTACX_site3196] | 6.93 |
| TATTTGCAATATAACACACACAAAAAAAGACTCGGA [CACACA_site6891] | 7 |
| CATATATATATATATTGTACACATTTTTTATAAAAA [XGTACX_site2526] | 7.54 |
| AATTATACATTATATTGTACATATGAATAATTAAAA [XGTACX_site6829] | 6.99 |
| TATATGTAATATATATGTACGTATAATATAATATTG [XGTACX_site8620] | 6.98 |
| AGTGATAATTTAAAAAGTACAAATGAAATTTAGCTA [XGTACX_site3375] | 6.83 |
| TATATATAAAGCAGTACACACATTTATTTTAGATAC [CACACA_site3387] | 7.08 |
| AGAGAGAAAGCTATAACATGCAAAAATTTTTAGAAC [TGCATGCA_site420] | 7 |
| ATACAAATAAAAAAAAAAATTATAAAATTATAAAAT [CACACA_negctrl_site914] | 6.81 |
| GGATTGATAAGTGGTACACACATATATATTATATAT [CACACA_site2866] | 7.19 |
| GCATTGGGAATATATAGTACATATATATATATATAA [XGTACX_site2967] | 7.39 |
| AAATATAAAAATAGCACACATATATACCTATATATA [CACACA_site4204] | 6.94 |
| TTTTTCTTTTTCTTTTTTTCTTTTTTTTTTTTTTTC [GTGCAC_negctrl_site727] | 6.79 |
| CAGACGCACGTATTTGCACACATTGCCACGTAATTA [CACACA_site3349] | 7.07 |
| AACCATTCAACTGATGCATGCATTTAACATATAAAT [TGCATGCA_site961] | 7.14 |
| AAAAAAATTGGGAAAAGTACTTGCAGCTAGCTAAAA [XGTACX_site5178] | 6.58 |
| TTAAAAAAAATTTCAAGTACAAAGTAATATATATAT [XGTACX_site5718] | 8.43 |
| AAACAAATATAATATTGTACATATATATATATATAT [XGTACX_site3105] | 9.52 |
| ATATATATATAATTTTGTACATAATAGCAATTCTAA [XGTACX_site653] | 8.45 |
| GGATGGAGTAGTTAAGCATAATAAATAAAATTATGT [CACACA_negctrl_site578] | 6.96 |
| GTTTTAAACAAAAATTGTACAATATAATCTTCCTAT [XGTACX_site2851] | 6.79 |

| Sequence | gcPBM binding intensity (ln) |
| --- | --- |
| CAAAACCTTTTATGTACACACATATACATCCCACTT [CACACA_site5716] | 7.06 |
| AACAACTATTAATTTACACACATGTATATATTTTAC [CACACA_site3116] | 7.09 |
| AATAGCTAGCTGTGCACACAAACATATTTTCCAAAT [CACACA_site880] | 8.77 |
| CCACAAGCAGCGGAAACATGCATATGTTGAAATAAT [TGCATGCA_site610] | 6.68 |
| TCATTTCACAAACACACACACACAATATATTTCCTT [CACACA_site3905] | 7.28 |
| AACAAAAAAAAAAAATGTACATATATATAATATATT [XGTACX_site3829] | 6.87 |
| GTTAAGAATATGTGTACACATATACATAAATACATA [CACACA_site4254] | 7.71 |
| TAATAATATTATTAATGTACAAATATATATACATAT [XGTACX_site7348] | 6.96 |
| TATATATATATATATTGTACCCTTTTCAAACTTCTC [XGTACX_site2812] | 9.01 |
| AATATCATCCTTTTTTTTTATAAAATTTAAAATATA [CACACA_negctrl_site844] | 6.79 |
| ACCTCACAAATGAATACACACAAACATATATATTTA [CACACA_site4976] | 7.43 |
| TATTTTATTATACCAAGTACAAAATTTAAATATGAA [XGTACX_site5478] | 7.1 |
| TATAAGAGAATATATACACACAAAAATAAATACAGT [CACACA_site5000] | 7.49 |
| ATTTTATGTTGAAAGTGTACGTATTAATATGTAGAA [XGTACX_site245] | 7.34 |
| TTTATTTTCATATGAACACACATATTTATATTATAA [CACACA_site7165] | 7.04 |
| ATACATACATATATATGTACTTATATTTTACACATT [XGTACX_site1688] | 7.28 |
| TACAATCTAAGGAGCACACAAAAATGGATAAATATA [CACACA_site933] | 7 |
| TAATAAAAGAAAAAAAGTACAGACATATTGAATTTT [XGTACX_site5044] | 6.97 |
| GCTTGAATAATCAATAGTACACACATATAAATATAT [XGTACX_site5964] | 7.08 |
| AACACAAGAACAGAACGTACACACACATATATATAT [XGTACX_site7347] | 7.23 |
| AGGTGTGAGACCACGTTCACAAAATAAAATACATAA [CACACA_negctrl_site326] | 6.9 |
| TTTTTTTTTTTTTTTTGTACTCATACATACTATCAT [XGTACX_site3650] | 7.18 |

| Sequence | gcPBM binding intensity (ln) |
| --- | --- |
| CAGGCACTAATAAACACACACATATAAATATAAATA [CACACA_site6320] | 6.99 |
| ACATCAAGCAGACACACACACACACCCACCCACCCA [CACACA_site8012] | 7.32 |
| AATTTCTACTATTGTATGCACTTTCATACATACATA [GTGCAC_site9924] | 7.52 |
| ATAATAAAAAATACAAGTACACATATTATATATATA [XGTACX_site5355] | 8.09 |
| AATGCTATCATTAATGCACACATTTAAAATTAATAT [CACACA_site3548] | 7.18 |
| TTTAAAACCTTACATACACACAAATATATATATATA [CACACA_site677] | 9.16 |
| CAAACAATTAAACAAACACACATATACAAGTATTTA [CACACA_site5177] | 6.69 |
| TTTAAGTTTTTACTTTGTACGTATTATAATAAAATC [XGTACX_site5683] | 7.33 |
| TATATTTACTTATGAAGTACATATATATATATATAT [XGTACX_site5069] | 9.53 |
| TGTTCTTTTTATACTACACACTGATAAAAAAACAAA [CACACA_site3001] | 7.34 |
| TTCATACATAGAAAATGTACATATATATATATATAT [XGTACX_site1895] | 9.47 |
| ATATATATGCATAATACACACATCATATAATTAACC [CACACA_site1643] | 7.24 |
| TACAAAATATTTTACACACACATATAAATACAGATA [CACACA_site5447] | 7.08 |
| AAGATATGTACTAATACACACACATATATATATATA [CACACA_site8249] | 9.19 |
| AAAAAAAAAAACAATACATGCATAATATTAATAAAA [TGCATGCA_site913] | 6.96 |
| AAAGAAAAAAAATAATGTACTTATGTATTTCAGAAA [XGTACX_site3570] | 6.78 |
| ATTTTTTTTTTTAATACACACAATTTTGATGAAGCA [CACACA_site3157] | 7.01 |
| TTTCATAAGAGAAAGACACACAAATATATATTTATT [CACACA_site827] | 6.81 |
| TATAATATTTGGTGCACACAAATTAACAACTGTTTA [CACACA_site3742] | 11.7 |
| ACATTACCATATAAAACACACAAACATACATACATA [CACACA_site7709] | 7.13 |
| TATCCATGCATTTACACACACACAAAAAAAAATTCT [CACACA_site4100] | 7.57 |
| TTTTAAATAATTCGTAATTATAATTATGGAAAAAAG [CACACA_negctrl_site152] | 6.99 |
